# PubChem BioAssay AID488969 (Vanderbilt High Throughput Screening Facility, 2010)
# In all, about 110,000 compounds were measured (“z-score”: median about -0.1, highest 2% from about 2 on). Some of the results follow. Active and inactive are the calls of the source.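 Rule for the calls: active = z-score in the third read window above 3 or below -3; inactive = the rest.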
# Biological target: Metabotropic glutamate receptor 8 (Rattus norvegicus) (UniProt P70579)
# Assay: rat mGluR8 modulators via GIRK flux, primary screen, cell-based, thallium flux, HTS (AID 488969)
# Conditions: HEK293 rat mGluR8, GIRK (G protein-gated inwardly rectifying potassium channel) thallium flux, FluoZin2; at 10 µM; stronger effect = higher value; submaximal glutamate (EC20) added with thallium
# UniProt P70579, sequence (P70579 whole entry, looked up): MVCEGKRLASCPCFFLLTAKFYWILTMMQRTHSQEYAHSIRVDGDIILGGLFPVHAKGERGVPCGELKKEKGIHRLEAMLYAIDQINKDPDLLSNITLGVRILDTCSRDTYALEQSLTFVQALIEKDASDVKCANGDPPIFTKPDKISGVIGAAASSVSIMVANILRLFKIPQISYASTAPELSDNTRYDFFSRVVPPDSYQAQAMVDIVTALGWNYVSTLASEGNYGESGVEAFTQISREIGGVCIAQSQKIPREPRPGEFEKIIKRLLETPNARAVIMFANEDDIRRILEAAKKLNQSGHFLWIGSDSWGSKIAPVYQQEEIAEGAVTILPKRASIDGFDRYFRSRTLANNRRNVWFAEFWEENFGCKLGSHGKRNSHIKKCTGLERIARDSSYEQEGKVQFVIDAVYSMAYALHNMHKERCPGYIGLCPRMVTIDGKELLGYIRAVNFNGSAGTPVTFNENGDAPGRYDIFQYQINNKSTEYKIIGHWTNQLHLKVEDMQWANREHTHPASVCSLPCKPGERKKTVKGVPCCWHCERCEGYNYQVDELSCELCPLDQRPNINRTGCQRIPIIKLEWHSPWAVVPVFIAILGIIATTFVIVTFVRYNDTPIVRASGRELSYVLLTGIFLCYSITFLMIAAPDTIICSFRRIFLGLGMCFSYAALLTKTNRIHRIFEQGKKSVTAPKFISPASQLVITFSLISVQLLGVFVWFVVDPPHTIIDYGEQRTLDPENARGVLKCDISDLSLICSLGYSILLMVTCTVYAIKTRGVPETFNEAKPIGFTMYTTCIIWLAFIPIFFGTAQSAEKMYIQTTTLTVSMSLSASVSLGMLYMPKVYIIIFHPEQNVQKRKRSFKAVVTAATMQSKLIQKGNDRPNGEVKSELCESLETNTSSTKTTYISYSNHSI
row,SMILES,z-score
1,CN(C)C(CNC(=O)CN1C(=O)NC2(CCc3ccccc32)C1=O)c1ccco1 (stereo unspecified),-0.314
2,CC(C)(C)CC(C)(C)NCC(O)COc1ccc2c(c1)CCC2 (stereo unspecified),1.75
3,N#C/C(=C\c1ccc(OCC(N)=O)cc1)c1ccccc1,-0.12
4,CC(C)C(c1nnnn1Cc1ccc(F)cc1)N1CCN(C(=O)c2ccco2)CC1 (stereo unspecified),-0.796
5,COc1ccccc1NC(=S)NCCC(c1ccccc1)c1ccccc1,-0.217
6,Cc1ccc(S(=O)(=O)N2CCC(C(=O)N3CCC(C(=O)NCC4CCCO4)CC3)CC2)cc1 (stereo unspecified),0.137
7,CC(C)(C)C(=O)Nc1ccc(C(=O)N/N=C/c2ccccc2OC(=O)c2ccccc2)cc1,-0.336
8,COC(=O)c1cccc(NC(=S)NCc2ccc(Cl)cc2)c1,0.53
9,O=C(CS(=O)CC(=O)N(c1ccccc1)C(C(=O)NC1CCCCC1)c1ccco1)Nc1ccc(F)cc1 (stereo unspecified),-0.245
10,CCOc1cc2[nH]c(=O)n(CCCC(=O)NCc3ccc(OC)cc3)c(=O)c2cc1OCC,-0.248
11,O=C(CCN1C(=O)c2ccccc2C1=O)NCc1ccco1,1.41
12,CCCOc1ccc(Cc2c(Cl)nc(SC)nc2NC)cc1,-0.115
13,FC(F)(F)c1cnc(N2CCC(=NOCc3ccc(Cl)cc3)CC2)c(Cl)c1,-0.348
14,O=C(c1ccc2c(c1)OCO2)N1CCCN(C(=O)c2ccc3c(c2)OCO3)CC1,0.178
15,CCNc1ccc(C(=O)OCC(=O)NCc2ccc(C)cc2)cc1[N+](=O)[O-],-0.488
16,Cc1ccnc(NC(=O)c2sc3cc(Cl)ccc3c2Cl)c1,0.101
17,CC1(C)CC(O)C(C)(C)N1O (stereo unspecified),-0.038
18,Cc1nc2cc(NC(=O)N3c4ccccc4CC3C)ccc2o1 (stereo unspecified),-0.805
19,CCC(C)c1ccc(NC(=S)NCc2cccnc2)cc1 (stereo unspecified),1.41
20,CSc1ccc(-c2nc3cnccn3c2Nc2ccc3c(c2)OCO3)cc1,-1.46
21,C/C(=N\Nc1nnc(C)c(=O)[nH]1)C(=O)O,-0.127
22,COc1ccc(OCCOc2ccccc2[N+](=O)[O-])cc1,-0.217
23,CC(=O)c1nn(-c2cccc(Br)c2)cc1C(=O)c1ccc2ccccc2c1,-0.0633

row,SMILES,z-score
1,Cc1ccc(C(=O)Nc2nc3c(s2)CCCC3)o1,-0.106
2,COc1cccc(CNc2ccc(N3CCC(C)CC3)cc2)c1OC,-0.111
3,Cc1ccccc1OC(C)c1nc(-c2ccccc2)no1 (stereo unspecified),0.517
4,O=C(CSc1nnc(-c2ccncc2)n1-c1ccc(F)cc1)NC(=O)NCc1ccco1,-0.336
5,Cc1c(C#N)c(=O)oc2ccc3ccccc3c12,-0.263
6,O=C(NCc1ccc2c(c1)OCO2)c1ccc(Cl)c(S(=O)(=O)NCc2ccccc2)c1,-0.164
7,O=C1C=C(O)CC(c2ccco2)C1 (stereo unspecified),0.462
8,Cc1cc(C)c(Cn2c(=O)n(CCCC(=O)NCc3ccco3)c(=O)c3sccc32)c(C)c1,-0.113
9,CC1=C(C(=O)N2CCOCC2)C(c2ccccc2F)C2=C(CC(C)(C)CC2=O)N1 (stereo unspecified),0.296
10,Cc1ccc(C(=O)Nc2sc3c(c2C(=O)NCc2ccco2)CCCC3)cc1,-0.108
11,CC1/C(=C\c2ccc(Cl)cc2)C(=O)C2CC1C2(C)C (stereo unspecified),0.159
12,O=C(NCc1cccnc1)C1CCN(C(=O)c2ccc(Cl)cc2Cl)CC1,-0.0203
13,O=C(Nc1ccccn1)N1CCOCC1,-0.17
14,O=C(NC(=Nc1ccccc1)N1CCOCC1)Nc1ccccc1,2.94
15,COc1ccc(S(=O)(=O)N(C)CC(=O)Nc2ccccc2SC)cc1,0.866
16,C=CCn1c(SCC(=O)NC2CCCCC2)nnc1C1CCCCC1,0.0781
17,CCOC(=O)C(=CNc1ccc(NC2=NCC(C)S2)cc1)C(=O)OCC (stereo unspecified),-1.23
18,CCOc1ccccc1Nc1nnc(Cc2ccccc2Cl)c(=O)[nH]1,active: 12.8
19,CCCNC(=O)CC1Sc2ccccc2NC1=O (stereo unspecified),-0.158
20,COc1ccc(NC(=O)C(NC(=O)c2ccc(=O)[nH]c2)c2ccc(C)cc2)cc1 (stereo unspecified),-0.215
21,CCCc1nc(SCc2ccccc2Cl)n[nH]1,-0.169
22,O=c1c2ccccc2c(-c2ccc(Cl)cc2)nn1-c1ccccc1,-0.762
23,CCCCCCCCCc1nc2sc3c(c2c(=O)n1NC(=O)c1ccccc1[N+](=O)[O-])CC(C)(C)OC3,-0.0955

row,SMILES,z-score
1,Cc1cccc(-c2onc3ccc(C4(C)OCCO4)cc23)c1,-0.119
2,COc1ccc(NS(=O)(=O)c2ccc(NC(=S)NC(=O)C(C)C)cc2)cc1,-0.243
3,N#Cc1ccc(CSc2ncnc3c2cnn3Cc2ccccc2)cc1,0.066
4,CSc1ncccc1C(=O)OCc1ccccc1F,-0.548
5,COc1ccc(/C=N\NC(=O)COc2ccc(Cl)cc2Cl)c(C(=O)O)c1OC,-0.177
6,O=C(Cn1nnc2c(cnn2-c2ccccc2)c1=O)N1CCN(c2ccccc2F)CC1,-0.639
7,COC(=O)/C=C/C(=O)Nc1cccc(C(F)(F)F)c1,0.831
8,Cc1c(-c2cccs2)[n+](=O)c2c(n1[O-])CCC2,0.00683
9,Cc1ccc(C(=O)Nc2ccc(N3CCOCC3)nc2)cc1,-0.252
10,CSc1nc2c(c(=O)n1-c1ccc(F)cc1)SCC2,-0.287
11,CCOC(=O)C1=C(C)NC(=O)C(C#N)C1c1ccco1 (stereo unspecified),-0.308
12,Cc1[nH]n(-c2ccccc2)c(=O)c1/C=N/NC(=O)COc1ccccc1[N+](=O)[O-],-0.522
13,COc1ccccc1NC(=O)c1sc2ncn(Cc3cccc4ccccc34)c(=O)c2c1C,-0.232
14,COc1cc(C(C(=O)NC(C)(C)C)N(C(=O)CNC(=O)c2cccs2)c2ccc(C(C)C)cc2)cc(OC)c1OC (stereo unspecified),-0.0508
15,CCOC(=O)C1CCCN(C/C(O)=C(\C#N)c2nc(-c3ccccc3)cs2)C1 (stereo unspecified),0.962
16,Cn1cc(SCC(=O)Nc2ccc3c(c2)OCO3)c2ccccc21,0.236
17,COc1ccc2c(CC(=O)N3CCc4ccccc43)coc2c1,-0.061
18,CCC1CCCCN1C(=S)Nc1ccc(OC(F)F)cc1 (stereo unspecified),-0.372
19,CCOc1cc(CNc2ncc(-c3ccc(OC)cc3)n2C)ccc1O,-0.622
20,COCCCNCCCOc1ccc(C)cc1Br,-0.00352
21,N/C(=N\OC(=O)CC1CCCCC1)c1ccccc1,-0.155
22,CCCNCc1cc(OCC)c(OCC(N)=O)cc1Br,-0.0317
23,Cc1noc(C)c1C(=O)N1CCN(c2ncccn2)CC1,0.134

row,SMILES,z-score
1,Cc1ccc(O)c(NC(=S)NC(=O)c2ccc(-c3ccc(Cl)cc3)o2)c1,0.233
2,O=C(OC1CCOC1=O)c1ccc(S(=O)(=O)N2CCCCCC2)cc1 (stereo unspecified),0.237
3,O=C(OCc1nc2scc(-c3ccccc3)c2c(=O)[nH]1)c1cc(Cl)ccc1[N+](=O)[O-],-0.199
4,CCOC(=O)c1sc2ccccc2c1NC(=O)c1coc2ccccc2c1=O,-0.353
5,CC1CN(c2nc3ccccc3nc2C(C#N)C(=O)NCc2ccc3c(c2)OCO3)CC(C)O1 (stereo unspecified),-0.699
6,CCOC(=O)c1c(C)[nH]c(C(=O)COC(=O)c2ccncc2)c1C,-0.607
7,CC(C)NC(=O)NC(=O)COC(=O)C1CCCN1C(=O)c1cccs1 (stereo unspecified),-0.186
8,COC(=O)c1c(O)c2ccccc2[nH]c1=O,0.0922
9,CSc1cccc(NC(=O)C2CCCN(S(=O)(=O)c3ccc(F)cc3)C2)c1 (stereo unspecified),-0.0615
10,S=c1[nH]nc(Cc2ccccc2)n1Cc1ccco1,0.201
11,CC(/C=N/NC(=O)c1ccc2nc(C)[nH]c2c1)=C\c1ccccc1,1.15
12,O=S(=O)(NCc1ccccc1Br)c1cccs1,0.562
13,O=C1CSC(=O)N1CC(O)COc1ccc(Cl)cc1 (stereo unspecified),1.4
14,CCc1[nH]nc2c1C1(CCN(C(=O)c3ccccc3)CC1)C(C#N)=C(N)O2,-0.41
15,Clc1ccc(CSc2nnc(-c3ccc4c(c3)OCO4)o2)cc1,-0.0552
16,CCOc1ccccc1N1CCN(C(=O)c2c(-c3ccccc3Cl)noc2C)CC1,0.339
17,Oc1ccccc1N1CCN(C(=S)NCCc2ccccc2)CC1,-0.164
18,Cc1nn(Cc2c(F)c(F)c(F)c(F)c2F)c(C)c1NC(=O)c1c([N+](=O)[O-])c(C)nn1C,-0.145
19,CCCCn1c2c(c3ccccc31)CCc1nonc1-2,-0.191
20,O=C(CSCc1nc2ccccc2[nH]1)Nc1ccccc1,-0.126
21,CC(=O)NCCC(=O)Nc1sc2c(c1-c1nc3ccccc3[nH]1)CCCC2,-0.454
22,O=C(CNC(=O)c1ccccc1F)N/N=C/c1cc(Br)ccc1OCc1ccccc1,-0.402
23,C(=N\c1ncnc2sccc12)/NOCc1ccccc1,0.0507

row,SMILES,z-score
1,CCCCC(=O)Nc1sc(C(=O)N(CC)CC)c(C)c1C(=O)OC,-0.324
2,CC1(C)CC(=O)C2=C(C1)OC(N)=C(C#N)C2C1C=CCCC1 (stereo unspecified),-0.228
3,COc1ccc(OC)c(NC(=O)COC(=O)CCCN2C(=O)c3ccccc3C2=O)c1,-0.258
4,Cc1cc(C(=O)OCC(=O)NCCc2ccccc2)c(C)o1,-0.313
5,CC(C)(C)C(=O)CN1C(=O)C2(OCCO2)c2ccccc21,0.508
6,O=C(N/C(=C/c1cccnc1)C(=O)N1CCOCC1)c1ccccc1Br,1.4
7,COc1ccc(-c2cc(-c3ccccc3)nc(SCC(=O)Nc3nccs3)c2C#N)cc1,-0.519
8,CCCNS(=O)(=O)c1ccc(CCC(=O)N2CCN(c3ccc(OC)cc3)CC2)cc1,-0.229
9,CC(Sc1ccc(Cl)cc1)C(=O)Nc1ccc(S(=O)(=O)N2CCOCC2)cc1 (stereo unspecified),0.967
10,C/C(=N/NC(=O)CNC(=O)c1ccccn1)c1ccccc1,0.00855
11,Cc1ccc(C2NNC(=O)C2NC(=O)c2ccccc2)cc1 (stereo unspecified),0.059
12,CCn1c(CNC(=O)COc2ccc(C(C)C)cc2)nnc1SCC(=O)Nc1ccc(F)cc1,-0.592
13,CN(C)CCN1CCc2ccccc21,1.3
14,Cc1nn(-c2ccccc2)c(C)c1NC(=O)CCl,-0.0162
15,COCCNC(=O)c1c(N)n(CCC2=CCCCC2)c2nc3ccccc3nc12,-0.122
16,CN1C(=O)/C(=C/c2cc(N=Nc3ccccc3)ccc2O)SC1=S,1.04
17,O=C(NCc1ccco1)c1cc2n(n1)C(C(F)(F)F)CC(c1ccc(F)cc1)N2 (stereo unspecified),-0.0373
18,Cc1cc(NS(=O)(=O)c2ccc(-c3ccccc3)cc2)no1,-0.115
19,c1ccc2cc3[nH]c(CN4CCOCC4)nc3cc2c1,0.139
